# Measurements: PubChem BioAssay AID1671194 (National Center for Advancing Translational Sciences (NCATS), 2021)
# The campaign covered roughly 140,000 compounds. About 240 (0.17%) were called active. This list was built around the results that the source calls inconclusive (neither active nor inactive); the mix of calls is not that of the screen. Calls come from the whole dose curve; as a rule, active = well fitted inhibition curve with a large enough effect; inconclusive = small, poorly fitted or top-dose-only effect; inactive = no such curve, though single readings can be large or run the other way. A potency beside an inconclusive call is a rough fit, not a confirmed value.
# Assay: Primary qHTS assay for inhibitors of alpha-synuclein gene (SNCA) expression; note: nearly all actives have a fitted effect of over 45% in size
# Details: HEK-293 SNCA-luciferase knock-in, luminescence, 24 h; series mostly up to 57.2 µM
# Potency is the fitted concentration of half-maximal effect; tags give direction and shape of the fitted curve.
row,Structure (SMILES),Potency
1,CSc1ccc(CCNC(=O)Cn2ncc3c(=O)oc4ccccc4c32)cc1,"inconclusive: 7.08 µM [inhibitor, single point]"
2,COc1cccc(C(=O)N2CCc3nc(C4CC4)nc(-c4ccc(Cl)cc4)c3C2)c1,"inconclusive: 1.26 µM [inhibitor, full curve, poor fit]"
3,CS(=O)(=O)N(Cc1cccnc1)C1CN(C(=O)c2ccc3[nH]ccc3c2)C1,"inconclusive: 5.62 µM [inhibitor, single point]"
4,CCc1ccc(NC(=O)Cn2c(=O)n(Cc3nc(-c4ccccc4)no3)c(=O)c3cc4c(cc32)OCO4)cc1,"inconclusive: 3.55 µM [inhibitor, partial curve, poor fit]"
5,c1ccc2c(c1)COC1(CCNC1)CN2CC1CCCCC1 (stereo unspecified),inactive
6,Cc1ccc(Nc2ccnc(N3CCC(C(=O)NCC4CCCCCC4)CC3)n2)cc1,"inconclusive: 39.8 µM [inhibitor, single point]"
7,COc1ccccc1CN1CCCn2nc(C)c(-c3ccccc3[S+](C)(=O)[O-])c21,"inconclusive: 31.6 µM [inhibitor, single point]"
8,COc1ccccc1NC(=O)c1c(OC)cc(=O)n2c1CCCC2,"inconclusive: 31.6 µM [inhibitor, single point]"
9,Cc1ccc(C(=O)N2CCC3(CC2)CC(c2cccc(C(F)(F)F)c2)=NO3)cc1,inactive
10,C#CCN(C)Cc1nc(C2(O)CCN(C(=O)c3ccccc3F)CC2)cs1,"inconclusive: 17.8 µM [inhibitor, partial curve]"
11,Cc1ncoc1C(=O)NC1CC(C)(C)Cc2nc(C(C)(C)C)ncc21 (stereo unspecified),"inconclusive: 39.8 µM [inhibitor, single point]"
12,Cc1ccc(C)c(CSc2ccc3nnc(CCNS(=O)(=O)c4ccccc4)n3n2)c1,"inconclusive: 7.08 µM [inhibitor, single point]"
13,COc1ccc(OC)c(Nc2ncnc3c2cnn3-c2cccc(Cl)c2)c1,"inconclusive: 3.98 µM [inhibitor, full curve, poor fit]"
14,Cc1ccn2c(Nc3ccc(F)cc3)c(-c3ccccn3)nc2c1,"inconclusive: 5.62 µM [inhibitor, partial curve]"
15,COc1ccccc1CNC(=O)C1CCN(C(=O)N2CC3CC(C2)[C@H]2CCCC(=O)N2C3)CC1 (stereo partly specified),"inconclusive: 39.8 µM [inhibitor, single point]"
16,CCN(CC)CCNC(=O)c1cc(-c2ccc(Br)s2)nc2ccccc12,"inconclusive: 25.1 µM [inhibitor, single point]"
17,Cc1ccccc1N1CCN(C(=O)c2cc3n(n2)CC(c2ccc(Cl)cc2)OC3)CC1 (stereo unspecified),"inconclusive: 39.8 µM [inhibitor, single point]"
18,COCCN(C)C[C@@H]1CN(C(=O)c2ccc(-c3ccco3)cc2)C[C@@H]1CO,inactive
19,CCOCCN1C[C@]23C=C[C@H](O2)C(C(=O)N2CCC(F)(F)CC2)C3C1=O (stereo partly specified),"inconclusive: 44.7 µM [inhibitor, single point]"
20,Cc1ccc(C(=O)NCc2nnc3cc(-c4nc(C(C)C)no4)ccn23)cc1F,inactive
21,O=C([C@@H]1C[C@H](Oc2ccccc2)CN1C(=O)CC1CCCC1)N1CCCC1,inactive

row,Structure (SMILES),Potency
1,COc1ccc(Cn2c(=O)n(-c3ccccc3C)c(=O)c3c4c(sc32)CN(C(C)=O)CC4)cc1,"inconclusive: 39.8 µM [inhibitor, single point]"
2,CCC(=O)N1CCc2c(C(=O)NCc3ccccc3F)cccc21,inactive
3,COc1cc(CNC(=O)c2ccc3c(c2)N(C(=O)c2ccc(F)cc2)CC3)cc(OC)c1,"inconclusive: 22.4 µM [inhibitor, single point]"
4,COc1ccc2nc(NC(=O)c3nc(S(=O)(=O)Cc4ccccc4)ncc3Cl)sc2c1,"inconclusive: 39.8 µM [inhibitor, single point]"
5,CSc1ccc(CCNC(=O)CCc2c(C)nc3c(c(C)nn3-c3ccc(C)c(C)c3)c2C)cc1,"inconclusive: 0.178 µM [inhibitor, full curve, poor fit]"
6,O=C(CCC[C@@H]1[C@H]2CCCN3CCC[C@@H](CN1C(=O)CCc1ccccc1)[C@@H]23)N1CCOCC1,"inconclusive: 1.41 µM [inhibitor, full curve]"
7,CCOC(=O)c1c(C)sc(-c2c(-c3cc(C)ccc3C)[nH]c3c2c(=O)n(C)c(=O)n3C)c1O,"inconclusive: 39.8 µM [inhibitor, single point]"
8,O=C(NC1CCCC1)N1CCN(c2nccc(Nc3ccccc3F)n2)CC1,"inconclusive: 15.8 µM [inhibitor, single point]"
9,CC(Oc1ccc(F)cc1)C(=O)Nc1nc(-c2ccc(F)cc2)ns1 (stereo unspecified),"inconclusive: 39.8 µM [inhibitor, single point]"
10,OCC1CN(C2CCC2)CC12CCN(Cc1ccc(Br)o1)CC2 (stereo unspecified),"inconclusive: 39.8 µM [inhibitor, single point]"
11,CCC1=Nc2cc(C(=O)NCC(C)c3ccccc3)ccc2Sc2ccc(C)cc21 (stereo unspecified),"inconclusive: 0.178 µM [inhibitor, single point]"
12,COc1ccc(-n2c(C)c(C(C)=O)c3cc(OC(=O)c4ccc(C)cc4)ccc32)cc1,"inconclusive: 1 µM [inhibitor, full curve, poor fit]"
13,COc1ccc(CC(=O)N2CNC(=O)C23CCN(C(=O)CN)CC3)cc1,"inconclusive: 3.16 µM [inhibitor, single point]"
14,COC[C@@H]1CN(C(=O)c2occc2C)C[C@H]1c1ccccn1,inactive
15,CCCCc1nn2c(=O)cc(COC(=O)c3cccc(NC(=O)COc4ccccc4)c3)nc2s1,"inconclusive: 0.158 µM [inhibitor, partial curve, poor fit]"
16,CCN(CC1CCN(C2CCN(C)CC2)CC1)C(=O)c1ccc(-c2ccccc2)cc1,inactive
17,COc1ccc(NC(=O)[C@@H]2C[C@H](c3ccc(F)cc3)N(Cc3csc(C)n3)C2)c(C)c1,"inconclusive: 56.2 µM [inhibitor, partial curve, poor fit]"
18,O=C(NC1CCCCCC1)C1CCN(C(=O)N2CCOc3ccc(Cl)cc32)CC1,"inconclusive: 7.08 µM [inhibitor, single point]"
19,CNC(=O)[C@@H]1CN(C(=O)c2ccc3c(c2)OCO3)C[C@H]1c1n[nH]c(C)n1,"inconclusive: 11.2 µM [inhibitor, partial curve, poor fit]"
20,CCOCCCNC(=O)c1ccc2c(c1)NC(=O)C(CS(=O)(=O)Cc1ccc(F)cc1Cl)N2 (stereo unspecified),inactive
21,O=C1C[C@H]2CC[C@@H](CN1)N2Cc1ccc(OCc2ccccc2)cc1,inactive

row,Structure (SMILES),Potency
1,NC(=O)c1ccc(N(C(N)=O)c2c(F)cccc2F)nc1-c1ccc(F)cc1F,"inconclusive: 34.1 µM [inhibitor, single point]"
2,CCc1ccccc1Nc1nn2c(=O)c3ccc(C(=O)NCc4ccc(C)cc4)cc3nc2s1,"inconclusive: 8.91 µM [inhibitor, partial curve, poor fit]"
3,COCCNC(=O)c1nc(-c2ccc(F)cc2)c2cnccn12,inactive
4,COc1ccc(CN2C(=O)[C@@H]3C[C@@H](CN3Cc3cccs3)Oc3ccccc32)cc1,"inconclusive: 28.2 µM [inhibitor, single point]"
5,Cc1nn(-c2ccc(F)cc2)c(Oc2ccccc2F)c1CCC(=O)NCC1CCCO1 (stereo unspecified),"inconclusive: 39.8 µM [inhibitor, single point]"
6,O=C(NCc1ccccc1)c1ccccc1OC1CN(Cc2cccc(F)c2F)C1,inactive
7,O=C(CN1C(=O)NC(c2ccc(Cl)cc2)C2=C1COC2=O)Nc1ccc(C(F)(F)F)cc1 (stereo unspecified),"inconclusive: 11.2 µM [inhibitor, partial curve, poor fit]"
8,CC(C)(C)C(=O)Nc1cc(-c2cccc(Br)c2)nn1-c1ccccc1,"inconclusive: 39.8 µM [inhibitor, single point]"
9,CCN(C(=O)c1ccc2c(c1)N(Cc1cccc(Cl)c1)C(=O)c1ccccc1S2=O)c1ccccc1 (stereo unspecified),"inconclusive: 25.1 µM [inhibitor, single point]"
10,CCC(=O)N1c2ccccc2CC1C(=O)NCCCN1CCN(c2cc(C)ccc2C)CC1 (stereo unspecified),"inconclusive: 8.91 µM [inhibitor, partial curve]"
11,C[C@@H]1CN(C(=O)c2ccc3c(c2)NC(C)(COc2ccc4[nH]ccc4c2)CO3)C[C@H](C)O1 (stereo partly specified),inactive
12,COc1cc(NC(=O)Cn2ccn(Cc3ccccc3OC)c(=O)c2=O)cc(OC)c1,"inconclusive: 7.08 µM [inhibitor, single point]"
13,CCCC(=O)N1CCCN(c2ccnc3ccnn23)CC1,inactive
14,Cc1nn(C(=O)c2ccccc2)c(C)c1Sc1ccc(Cl)cc1,"inconclusive: 35.5 µM [inhibitor, single point]"
15,CC1=C(c2ccc(F)cc2)S(=O)(=O)N=C1N1CCC(C(=O)NCCc2ccco2)CC1,"inconclusive: 1 µM [inhibitor, partial curve, poor fit]"
16,Cc1ccc(Sc2c(C)nn(C(=O)COc3ccccc3)c2C)cc1,"inconclusive: 39.8 µM [inhibitor, single point]"
17,O=C(NCc1cccnc1)[C@@H]1C[C@@H](O)CN1C1CCN(C(=O)CCC2CCCC2)CC1,inactive
18,CCOc1ccc(CCNC(=O)c2cn(C)c3ccc(S(=O)(=O)N4CCOCC4)cc3c2=O)cc1OCC,"inconclusive: 0.178 µM [inhibitor, partial curve, poor fit]"
19,CC(C)c1nncn1C1CCN(S(=O)(=O)c2ccc(Br)s2)CC1,"inconclusive: 8.91 µM [inhibitor, single point]"
